Test results reported in publication PMC4336329 (PLoS ONE, 2015).
Screen size: about 310,000 compounds; about 14,000 (4.5%) showed an effect of 50% or more. The effect is printed as a negative number. This is one part of the list.

The compounds below were run against human ether-à-go-go-related gene (hERG) potassium channel (human, UniProt Q12809) (assay: primary screen, population patch clamp on CHO cells stably expressing hERG).
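Note: peak tail current of the secondary pulse compared with the same well before compound.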

Sequence of human ether-à-go-go-related gene (hERG) potassium channel (Q12809 whole entry, looked up): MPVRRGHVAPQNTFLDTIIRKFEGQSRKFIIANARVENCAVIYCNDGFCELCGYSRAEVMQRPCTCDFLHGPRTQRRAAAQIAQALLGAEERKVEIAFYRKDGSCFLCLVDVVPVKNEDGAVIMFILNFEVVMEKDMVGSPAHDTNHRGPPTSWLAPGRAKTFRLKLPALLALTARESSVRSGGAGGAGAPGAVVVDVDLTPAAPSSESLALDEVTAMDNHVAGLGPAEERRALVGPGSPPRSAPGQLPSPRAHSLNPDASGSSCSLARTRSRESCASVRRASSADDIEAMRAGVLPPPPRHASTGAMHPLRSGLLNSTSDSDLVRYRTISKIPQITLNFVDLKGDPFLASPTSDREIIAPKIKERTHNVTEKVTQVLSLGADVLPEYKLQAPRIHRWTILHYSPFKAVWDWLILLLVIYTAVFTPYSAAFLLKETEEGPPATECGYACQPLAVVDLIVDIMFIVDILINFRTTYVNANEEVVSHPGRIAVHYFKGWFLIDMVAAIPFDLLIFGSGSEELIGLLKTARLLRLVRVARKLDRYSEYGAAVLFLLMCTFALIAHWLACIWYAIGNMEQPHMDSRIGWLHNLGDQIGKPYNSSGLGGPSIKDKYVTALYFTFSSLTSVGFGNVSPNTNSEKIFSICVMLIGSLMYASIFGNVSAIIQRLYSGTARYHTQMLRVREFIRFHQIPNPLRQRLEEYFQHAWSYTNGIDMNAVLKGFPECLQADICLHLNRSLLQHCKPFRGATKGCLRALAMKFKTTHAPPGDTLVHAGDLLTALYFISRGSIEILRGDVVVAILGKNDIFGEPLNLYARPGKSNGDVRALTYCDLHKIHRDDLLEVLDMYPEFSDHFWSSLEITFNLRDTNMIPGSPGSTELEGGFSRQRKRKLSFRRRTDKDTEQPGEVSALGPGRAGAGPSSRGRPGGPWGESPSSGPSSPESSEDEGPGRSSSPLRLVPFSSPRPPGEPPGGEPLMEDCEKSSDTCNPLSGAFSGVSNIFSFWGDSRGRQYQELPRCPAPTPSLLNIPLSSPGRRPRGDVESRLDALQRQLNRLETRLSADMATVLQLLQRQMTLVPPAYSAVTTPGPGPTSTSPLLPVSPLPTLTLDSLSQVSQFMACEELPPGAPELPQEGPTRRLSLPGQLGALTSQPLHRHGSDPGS

Row | SMILES | hERG current change (%, negative = inhibition) at 10uM
1 | Cn1cnnc1SCC(=O)Nc1sc2c(c1C(N)=O)CCC2 | 1.02%
2 | Cc1ccc(S(=O)(=O)Nc2ccc(O)c3ccccc23)c(C)c1 | 4.64%
3 | COc1ccc(Cc2nc3ccccc3n2CC(=O)N/N=C/c2ccc(C)cc2O)cc1OC | 4.34%
4 | COc1ccccc1N1CCN(C(=O)c2ccncc2)CC1 | -5.58%
5 | Cc1ccc(-c2c(C(=O)N/N=C/c3ccc(C)o3)nnn2-c2nonc2N)cc1 | 16.9%
6 | COc1cc(OC)c(C(=O)CCCN2CCCC2)c(OC)c1.Cl | -4.43%
7 | COc1ccc(CNC(=O)c2ccc[nH]2)cc1Cl | 12.2%
8 | COc1cccc(C2c3[nH]c4ccccc4c3C[C@H]3C(=O)N(C)CC(=O)N23)c1 (stereo partly shown) | -24.7%
9 | CCOC(=O)N1CCC(NC(=O)Cn2cccc2C(=O)c2ccccc2C)CC1 | -12.3%
10 | CCCOC(=O)C(C)n1cnc2scc(-c3ccc(C)cc3)c2c1=O (stereo not shown) | 6.79%
11 | O=C(c1ccc(Cl)cc1)C(Cn1cncn1)C(Sc1ccccc1)c1ccccc1 (stereo not shown) | -6.65%
12 | NC(=O)CCC(NS(=O)(=O)c1ccc(Cl)cc1)C(=O)NCc1ccc(Cl)cc1 (stereo not shown) | 1.79%
13 | COC(=O)/C(C#N)=C1/SC=C(C)N1c1ccccc1 | -1.79%
14 | CCCCC(=O)c1ccc(O)cc1 | -30.6%
15 | O=C(Nc1nc(-c2ccc3c(c2)OCCO3)cs1)c1ccc(S(=O)(=O)N2CCCCC2)cc1 | 18%
16 | O=C(CSc1nnc(-c2cccnc2)n1CCc1ccccc1)NCc1ccccc1 | -10.9%
17 | COc1ccc(COCCN2CCN(S(=O)(=O)c3ccccc3)CCC2=O)cc1 | -12.5%
18 | COC(=O)c1ccccc1NC(=O)C1CCCN(S(=O)(=O)c2ccccc2)C1 (stereo not shown) | -39.2%
19 | O=C(O)CNC(=S)N(Cc1ccccc1F)C1CCCCC1 | 0.581%
20 | O=C(/C=C/c1cccc(Cl)c1)NCCc1ccccc1 | -5.75%

Row | SMILES | hERG current change (%, negative = inhibition) at 10uM
21 | CCOc1ccc(C(=O)N2CCCN(C(=O)c3ccc(OCC)cc3)CC2)cc1 | -71.8%
22 | CCc1nnc(NC(=O)CCC(=O)N2CCC(Cc3ccccc3)CC2)s1 | -10.8%
23 | COc1ccc(NC(=O)Nc2c(SC)nsc2SC)cc1 | 19.3%
24 | COc1ccccc1N1C(=O)C(=O)N(C)C1=O | 19.4%
25 | CCN(C(=O)COC(=O)Cc1ccc(F)cc1)c1c(N)n(Cc2ccccc2)c(=O)[nH]c1=O | 2.46%
26 | Cc1ccc(OCC(=O)OCC(=O)c2c(N)n(C)c(=O)n(C)c2=O)cc1C | -17.7%
27 | Cc1occc1-c1nnc(SCC(=O)c2c[nH]c3ccccc23)n1C | 6.07%
28 | CCOC(=O)CNC(=O)CSc1nnc(COc2ccc(Cl)cc2)n1CC | -5.31%
29 | Cc1ccc(S(=O)(=O)N(CC(=O)c2ccc(Cl)cc2)C(=O)N2CCN(C)CC2)cc1 | 20.9%
30 | Cl.N=c1ccn(Cc2ccc(F)cc2)cc1 | 17%
31 | CCCCC(=O)Nc1nnc(S(=O)(=O)N(CC)c2ccccc2)s1 | 23.9%
32 | COC(=O)CN1C(=O)Nc2ccc(Br)cc2C1c1ccccc1 (stereo not shown) | -14.6%
33 | COc1ccc(NC(=O)N2C[C@@H]3C[C@@H](C2)c2cccc(=O)n2C3)cc1 | 7.74%
34 | Cc1cc(C)cc(N(CC(=O)NC2CCCC2)C(=O)CNC(=O)c2cccs2)c1 | 18%
35 | O=C(Nc1ccc(Cl)cc1C(F)(F)F)c1ccccc1 | 8.81%
36 | O=C(Cn1ccccc1=O)c1ccc(Cl)cc1 | 32.1%
37 | CCn1c(CC(=O)Nc2ccccc2)nnc1SCC(=O)Nc1ccccc1C(=O)OC | 3.97%
38 | Cn1ncc2c(N3CCN(c4ccccc4F)CC3)ncnc21 | -28.4%
39 | CC(=O)N1CCN(C(=S)c2ccc(-c3ccc(Cl)cc3)o2)CC1 | -28.2%
40 | COc1cc(C(=O)N2C[C@@H]3CCC[C@H]2C3)ccc1OC1CCN(C(C)=O)CC1 | 15.1%

Row | SMILES | hERG current change (%, negative = inhibition) at 10uM
41 | OCC1CCCN(C(=S)NCCc2ccccc2)C1 (stereo not shown) | 0.885%
42 | COC(=O)c1ccc(CNC(=O)N2CCN(S(=O)(=O)c3ccc(C)cc3)CC2)cc1 | -3.35%
43 | COc1ccc2c(c1)C(=O)N(c1ccc(C)cc1)C(=O)C2 | 16%
44 | O=C(NCCN1CCOCC1)c1ccc(Cl)c(S(=O)(=O)N2CCOCC2)c1 | 13.1%
45 | CC(C)C[C@@H](CSc1ccc(Br)cc1)N1CCN(CC(C)C)CCC1=O | -68.6%
46 | Cc1oc(C(N)=O)nc1-c1ccccc1 | 17.8%
47 | COc1cccc(CNC(=O)C2CCCN(S(=O)(=O)c3cnc[nH]3)C2)c1 (stereo not shown) | -12.2%
48 | O=C(CNC(=O)c1ccc(Br)cc1)NC1=NCCS1 | 4.4%
49 | Cc1nnc(C)n1/N=C/c1ccccc1 | 5.49%
50 | C=CCn1c(SCc2cccnc2)nnc1-c1ccncc1 | -1.49%
51 | CC1=NNC(=O)C1C(c1ccc(Cl)cc1)C(C#N)C#N (stereo not shown) | -2.37%
52 | Cc1ccc(C(=O)NNC(=O)c2csc(N3CCOCC3)n2)o1 | 23%
53 | S=c1[nH]nc(-c2ccncc2)n1CC1CCCO1 (stereo not shown) | 22.2%
54 | O=C(O)C(=O)O.c1ccc2c(OCCCN3CCCCCC3)cccc2c1 | -65.8%
55 | Cc1ccc(OCCNCc2ccccc2)c(C)c1.O=C(O)C(=O)O | -6.1%
56 | O=C(Nc1ccc([N+](=O)[O-])cc1)C(Cc1ccccc1)N1C(=O)c2cccc3cccc(c23)C1=O (stereo not shown) | 9.65%
57 | COc1ccc(S(=O)(=O)N2CCCCC2C)cc1 (stereo not shown) | 4.81%
58 | Cc1[nH]c2ccccc2c1C(=O)CSc1nc2ccccc2c(=O)n1CCCN1CCOCC1 | -5.57%
